For 30 compounds, activity change, negative = inhibition results are on record in PubChem BioAssay AID1745853 (National Center for Advancing Translational Sciences (NCATS), 2022).

Each structure is given as a SMILES string. This is one part of the list. Shown are side measurements of this screen, not its main read-out; they come without a call.

Holding throughout (assay): Primary Screen for Target Class Profiling of Small Molecule Inhibitors of Methyltransferases
Assay [1] concerns the target Glycine N-methyltransferase (Homo sapiens) (UniProt Q14749). To be noted: purified enzyme, MTase-Glo SAH luminescence; measured here: GNMT inhibition; at 40 µM; stronger effect = lower value. The procedure, abridged: (§1)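 Each enzyme was assayed with SAM and its substrate. SAH formation detected by MTase-Glo luminescence; single-point 40 uM screen[…].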
The target in assay [2] is Guanidinoacetate N-methyltransferase (Homo sapiens) (UniProt Q14353). To be noted: purified enzyme, MTase-Glo SAH luminescence; measured here: GAMT inhibition; at 40 µM; stronger effect = lower value. The method in brief:
as §1

The target in assay [3] is Histamine N-methyltransferase (Homo sapiens) (UniProt P50135). As to conditions: purified enzyme, MTase-Glo SAH luminescence; measured here: HNMT inhibition; at 40 µM; stronger effect = lower value. The procedure, abridged: as §1
Assay [4] has as its target Nicotinamide N-methyltransferase (Homo sapiens) (UniProt P40261). To be noted: purified enzyme, MTase-Glo SAH luminescence; measured here: NNMT inhibition; at 40 µM; stronger effect = lower value. The method in brief:
as §1

Assay [5] addresses Phenylethanolamine N-methyltransferase (Homo sapiens) (UniProt P11086). To be noted: purified enzyme, MTase-Glo SAH luminescence; measured here: PNMT inhibition; at 40 µM; stronger effect = lower value. The procedure, abridged:
as §1
% is scaled to controls: 0 for no effect and ±100 for the full control effect.

`C=CCNC(=O)c1cnn2c1CN(C(=O)c1cccnc1)CC2`: the activity change, negative = inhibition in assay [1] was -2.91%; in assay [2], -0.404%; in assay [3], -1.05%; in assay [4] it was 0.633%; in assay [5], -22.6%.
With `CC1(C(=O)NC2CCCC2)Cn2cnc(C(=O)Nc3cccc(Cl)c3)c2C(=O)N1C1CC1` (stereo not given), the activity change, negative = inhibition was -2.46% in assay [1]; 0% in assay [2]; 9.59% in assay [3]; -10.3% in assay [4]; 2.78% in assay [5].
On the same counts, the results for `CCCn1c(=O)c2ccc(C(=O)NCC(C)C)cc2n2c(=O)n(CC(=O)Nc3cccc(C)c3)nc12` are 0.899%, 0%, 0.993%, 2.06% and 1.68%.
Take `CCC(C)OC(=O)C(C)Oc1ccc2c(=O)c(-c3ccc(OC)c(OC)c3)c(C(F)(F)F)oc2c1` (stereo not given): the activity change, negative = inhibition in assay [1] was -1.85%; in assay [2], 1.9%; in assay [3], 1.94%; in assay [4] it was -0.593%; in assay [5] it was -5.04%.
For the compound `CN(C)C(=O)C(CCN1CCC(O)(c2ccc(Cl)cc2)CC1)(c1ccccc1)c1ccccc1`, the activity change, negative = inhibition in assay [1] was -4.58%; in assay [2], 6.5%; in assay [3], -21.3%; in assay [4], -12.5%; in assay [5], 7.86%.
On the same counts, the results for `CCc1cc2c(cc3n2CC(C)(C(=O)NC2CCCCC2)N(Cc2cccc(OC)c2)C3=O)s1` (stereo not given) are 1.18%, 3.69%, 6.54%, 2.83% and -1.82%.
For `Cc1noc(-c2cccs2)c1C(=O)NCc1ccccc1Cl` the same measures were -12%, -18.2%, -3.43%, -17.8% and -9.41%.
In the case of `Cc1cccc(-c2nocc2CCC(=O)NCc2ccc(F)cc2F)c1`, the activity change, negative = inhibition in assay [1] was -4.9%; in assay [2], -5.38%; in assay [3], -1.21%; in assay [4] it was -15.1%; in assay [5] it was -11.5%.
For `Cn1cc(C(=O)N2C[C@@H](C(=O)O)[C@H](c3cccc(F)c3)C2)c(=O)[nH]c1=O` the same measures were -2.12%, -2.59%, -2.69%, -2.07% and -1.49%.
For `Cc1ccc(Cl)cc1Nc1nn2c(=O)c3ccc(C(=O)NC4CCC(C)CC4)cc3nc2s1` (stereo not given) the same measures were 2.81%, 0%, 2.56%, 5.84% and 2%.
On the same counts, the results for `CC(=O)N1CCN2C(=O)N(Cc3ccc(F)cc3)C[C@H]2C1` are -14.1%, -8.9%, -1.81%, -15.3% and -8.54%.
Consider `Cc1ccccc1C(=O)Nc1ccc(C(=O)N2CCCC(O)c3cc(Cl)ccc32)c(C)c1` (stereo not given), for which the activity change, negative = inhibition in assay [1] was -10.2%; in assay [2] it was -8.88%; in assay [3], 4.88%; in assay [4], -19.2%; in assay [5], -8.91%.
For `CC(C)CCC1(O)C(=O)C(C)(C)C(O[C@@H]2O[C@H](CO)[C@@H](O)[C@H](O)[C@H]2O)C(C)(C)C1O` (stereo not given in full) the same measures were 0.617%, -2.11%, 2.9%, -13.9% and -8.84%.
On the same counts, the results for `O=C(O)/C=C/c1cc2c(cc1O[C@@H]1O[C@H](CO)[C@@H](O)[C@H](O)[C@H]1O)OCO2` are 2.14%, 0.309%, 11.9%, -10.9% and -7.5%.
`CC1C=CC2CCCCC2C1CCC1CC(O)CC(=O)O1` (stereo not given): the activity change, negative = inhibition in assay [1] is -2%; in assay [2], 4.19%; in assay [3], 6.74%; in assay [4], -23.6%; in assay [5], -7.72%.
For `CC1(C(=O)NC2CCCCCCC2)Cn2c(cc3occc32)C(=O)N1Cc1ccco1` (stereo not given) the same measures were -0.258%, 0%, 7.66%, -4.46% and 4.8%.
For the compound `O=C(NC1CCCc2ccccc21)C1CN(C2CCCCC2)C(=O)N1` (stereo not given), the activity change, negative = inhibition in assay [1] is -7.25%; in assay [2] it was -9.38%; in assay [3] it was -4.61%; in assay [4], -15.5%; in assay [5], 2.25%.
On the same counts, the results for `C#CC(=O)N(c1ccc(OC)cc1OC)C(C(=O)NCC(=O)OCC)c1cccs1` (stereo not given) are -7.09%, -8.26%, 10.8%, -12.1% and 2.24%.
On the same counts, the results for `C[C@@H]1CN(C(=O)CCSCc2ccccc2)CC[C@@]1(O)C1CCOCC1` are -2.26%, -1.93%, 0.151%, -1.16% and 2.83%.
With `NCC1OC(O[C@H]2[C@H](O)[C@@H](OC3C(O)C(N)CC(N)C3OC3OC(CO)C(O)C(O)C3N)O[C@@H]2CO)C(N)C(O)C1O` (stereo not given in full), the activity change, negative = inhibition in assay [1] is 7.83%; in assay [2], 12.3%; in assay [3], 11.7%; in assay [4] it was -4.36%; in assay [5], 1.82%.
For `Cc1cn2nc(C(=O)NCC(C)c3ccccc3)cc2c(N2CCSCC2)n1` (stereo not given) the same measures were -4.75%, 1.57%, -10.7%, -9.65% and -0.411%.
For `CCC(C)NC(=O)c1ccc2c(=O)n(CCC(C)C)c3nn(CC(=O)Nc4ccc(C)cc4)c(=O)n3c2c1` (stereo not given) the same measures were 6.24%, 0%, 6.08%, 4.5% and 3.35%.
For `COC(=O)CNC(=O)c1cc(-c2cnccc2Cl)c2cccn2n1` the same measures were -15.8%, -1.73%, -5.33%, -12% and -2.65%.
Take `O=C(c1ccc(Cl)cc1)N1CCC(N2CCOC2=O)CC1`: the activity change, negative = inhibition is -2.39% in assay [1]; -8.92% in assay [2]; -2.81% in assay [3]; -12.8% in assay [4]; -9.27% in assay [5].
On to `COC(=O)c1cc2n(n1)CC(C)(C(=O)NC1CCCCCC1)N(c1cccc(SC)c1)C2=O` (stereo not given), for which the activity change, negative = inhibition in assay [1] was -3.25%; in assay [2], 2.67%; in assay [3] it was -7.68%; in assay [4], -2.47%; in assay [5], -2.56%.
For `O=[S+]([O-])(Nc1ccccc1)c1ccc2c(c1)OCCN(Cc1cncnc1)C2` the same measures were -15.7%, -7.05%, -4.36%, -12% and -36.6%.
On the same counts, the results for `CCCc1nnc(NC(=O)C2CC(=O)N(c3n[nH]c4cc(Br)ccc34)C2)s1` (stereo not given) are -5.93%, -8.57%, -2.06%, -21.2% and -14.5%.
Regarding `CC(C)CCNC(=O)C1(C)Cn2c(cc3ccccc32)C(=O)N1Cc1ccc(Cl)cc1` (stereo not given), the activity change, negative = inhibition was 7.96% in assay [1]; 0% in assay [2]; 10.3% in assay [3]; 7.39% in assay [4]; 1.64% in assay [5].
`CCN(CC)C(=O)C[C@@H]1CCNC[C@@H]1Cc1cc(-c2ccccn2)on1`: the activity change, negative = inhibition in assay [1] was -6.17%; in assay [2] it was -4.9%; in assay [3] it was -7.24%; in assay [4] it was -5.44%; in assay [5], -2.85%.
For `CCN(CCn1cccn1)Cc1ccccc1OCC(O)CN1CCCCC1` (stereo not given) the same measures were 0.028%, -5.67%, -7.85%, -2.99% and 0.719%.
